# Measurements as given in article PMC4336329 (PLoS ONE, 2015).
# In all, about 310,000 compounds went through this assay and about 14,000 (4.5%) showed an effect of 50% or more. Effects have a minus sign here. The list shows a part of the results.
# Biological target: human ether-à-go-go-related gene (hERG) potassium channel (human, UniProt Q12809)
# Test: primary screen, population patch clamp on CHO cells stably expressing hERG
# 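Also: peak tail current of the secondary pulse compared with the same well before compound.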
# Chain of human ether-à-go-go-related gene (hERG) potassium channel (Q12809 whole entry, looked up): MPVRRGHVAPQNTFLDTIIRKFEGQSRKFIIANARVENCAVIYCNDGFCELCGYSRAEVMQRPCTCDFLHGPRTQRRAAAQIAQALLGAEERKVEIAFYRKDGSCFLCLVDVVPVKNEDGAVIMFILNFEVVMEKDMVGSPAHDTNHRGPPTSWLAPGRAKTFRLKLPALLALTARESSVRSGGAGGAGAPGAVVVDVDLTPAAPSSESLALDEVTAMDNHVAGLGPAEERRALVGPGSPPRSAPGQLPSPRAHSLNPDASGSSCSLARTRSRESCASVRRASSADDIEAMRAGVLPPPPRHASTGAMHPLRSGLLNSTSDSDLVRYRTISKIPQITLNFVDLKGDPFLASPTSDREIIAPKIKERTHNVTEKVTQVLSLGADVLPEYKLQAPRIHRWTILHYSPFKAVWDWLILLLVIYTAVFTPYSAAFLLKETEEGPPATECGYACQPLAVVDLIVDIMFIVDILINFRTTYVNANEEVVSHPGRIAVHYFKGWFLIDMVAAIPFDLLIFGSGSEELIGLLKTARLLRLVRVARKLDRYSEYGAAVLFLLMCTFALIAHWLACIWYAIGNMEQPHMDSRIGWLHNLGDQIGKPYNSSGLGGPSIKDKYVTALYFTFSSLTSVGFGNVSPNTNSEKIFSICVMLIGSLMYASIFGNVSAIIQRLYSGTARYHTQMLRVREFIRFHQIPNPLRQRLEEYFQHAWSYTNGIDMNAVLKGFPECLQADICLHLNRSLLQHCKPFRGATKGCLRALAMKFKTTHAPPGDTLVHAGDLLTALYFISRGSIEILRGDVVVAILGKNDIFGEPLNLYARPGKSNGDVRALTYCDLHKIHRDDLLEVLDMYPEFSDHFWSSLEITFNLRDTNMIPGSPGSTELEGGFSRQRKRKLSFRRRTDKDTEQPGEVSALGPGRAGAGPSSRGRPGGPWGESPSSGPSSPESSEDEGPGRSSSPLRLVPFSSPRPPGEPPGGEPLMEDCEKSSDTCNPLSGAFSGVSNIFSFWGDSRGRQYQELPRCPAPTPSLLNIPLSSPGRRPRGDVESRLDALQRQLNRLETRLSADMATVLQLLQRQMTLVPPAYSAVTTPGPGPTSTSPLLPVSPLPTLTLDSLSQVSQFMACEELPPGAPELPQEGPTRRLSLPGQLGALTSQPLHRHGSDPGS
row,Structure (SMILES),"hERG current change (%, negative = inhibition) at 10uM [%]"
1,COc1cccc(NC(=O)CN(C)C(=O)CN2C(=O)NC(C)(c3ccc4ccccc4c3)C2=O)c1 (stereo not drawn),-2.88
2,Cn1nnc2cc(NC(=O)N3CC4(C)CC3CC(C)(C)C4)ccc21 (stereo not drawn),4.57
3,CCCCN1C(=O)c2ccc(C(=O)NCc3ccco3)cc2C1=O,-23.3
4,OCCCNc1c2c(nc3cc(-c4ccc(Cl)cc4)nn13)CCC2,-32.7
5,CC(=O)CSc1nnc(-c2ccc3c(c2)OCO3)o1,4.77
6,Cc1cc(OCC(=O)OCC(=O)N2CC(C)CC(C)C2)ccc1Cl (stereo not drawn),3.65
7,Cn1cc(CN2CCc3c([nH]c4ccccc34)C2C2CCCCC2)cn1 (stereo not drawn),-8.07
8,O=c1[nH]c(=O)n(-c2cccc3ccccc23)c(O)c1C=NCCCn1ccnc1,15.1
9,COc1ccc(N2C(=O)CC(S/C(N)=N/N=C(\C)c3cccs3)C2=O)cc1 (stereo not drawn),-26.4
10,C=CCOc1ccc(CNCc2cccnc2)cc1OCC.Cl,16.3
11,CCCn1c(CCC(=O)O)ccc1-c1ccc(OC)cc1,4.61
12,CCOC(=O)c1[nH]cnc1C(=O)N1CCN(C(=O)OC(C)(C)C)CC1,20.3
13,CCCC1=Nc2cc(C(=O)NCc3ccco3)ccc2Sc2ccccc21,1.84
14,COc1ccc(-c2noc(CCc3ccccc3)n2)cc1,4.83
15,Cc1cc(C)n(C(=O)CCN2C(=O)c3ccccc3C2=O)n1,1.19
16,Oc1cccc(Oc2ncc(C(F)(F)F)cc2Cl)c1,-13.4
17,Cc1cc(C)n(S(=O)(=O)c2ccc(C)c(C)c2C)n1,-0.513
18,COC(=O)c1ccc(-n2nnnc2SCC(=O)Nc2cc(OC)ccc2OC)cc1,2.37
19,CCN(CC)C(=O)CSc1ccc(C(F)(F)F)cc1[N+](=O)[O-],-9.76
20,CC(NC(=O)C(c1ccccc1)c1ccccc1)c1ccccc1 (stereo not drawn),4.86
21,N#Cc1c(-c2ccccc2)cc(-c2ccc(O)cc2)nc1N,16.4
22,COc1nc(NC23CC4CC(CC(C4)C2)C3)nc(OC)n1,-18
23,CCOC(=O)CCc1c(C)c2ccc(OCC(=O)N(CC)CC)c(C)c2oc1=O,-2.79

row,Structure (SMILES),"hERG current change (%, negative = inhibition) at 10uM [%]"
1,CCCc1cc(=O)oc2c3c(cc(OCC(=O)N[C@@H](C)C(=O)O)c12)OC(C)(C)CC3,28.1
2,NS(=O)(=O)c1ccc(NC(=O)COC(=O)Cc2ccc(Cl)cc2)cc1,-0.0141
3,COc1ccc(CCn2nnnc2C(C(C)C)N2CCN(c3ncccn3)CC2)cc1OC (stereo not drawn),-5.93
4,CCOC(=O)N1CCC(NCc2c(C(=O)N(C)Cc3ccccc3)nc3ccccn23)CC1,-43.3
5,CCOc1ccccc1N(C)C(=O)Cn1ncc2c([nH]c3ccccc32)c1=O,-2.61
6,CN(CC(=O)Nc1ccccc1Br)C(=O)c1cccc(S(=O)(=O)NCc2ccccc2)c1,-17.6
7,CN(C)c1ccc(CNc2ncn[nH]2)cc1,17.7
8,CCN=C(NCC)SC1CC(=O)N(c2ccccc2)C1=O (stereo not drawn),-3.64
9,COc1ccc(CNC(=O)N2CCN(c3cccc(Cl)c3)CC2)cc1OC,-18.5
10,COc1ccc(C(C)=O)cc1COC(=O)CCNS(=O)(=O)c1ccc(C(C)=O)cc1,-45.9
11,Cc1ccn2cc(C(=O)Nc3ccc4c(c3)OCCO4)nc2c1,-8.61
12,N#Cc1c(-c2ccc(F)cc2)cc(-c2cccs2)nc1SCC(=O)O,24.9
13,COc1ccc(-c2n[nH]c(=S)n2N)c(OC)c1,20.8
14,Cc1cccc(NC(=O)Cn2nnc(C(=O)NCc3ccco3)c2N)c1,5.37
15,COc1ccc2c(c1)OC[C@H]1[C@H]2N2C(=O)CN(CC3CCCO3)C(=O)[C@@]2(C)[C@H]1c1ccccc1 (stereo partly drawn),-1.62
16,Cc1cc(C)c(/C=N/NC(N)=O)c(C)c1/C=N/NC(N)=O,-11
17,CN1CCN(C(=O)c2cc([N+](=O)[O-])ccc2Cl)CC1,16.8
18,COC(=O)c1ccc2c(=O)n(CCCCCC(=O)N3CCN(c4ccc(F)cc4)CC3)c(=O)[nH]c2c1,13
19,CCN(CC)C(=O)CSc1nc2cc3c(cc2c(=O)n1Cc1ccco1)OCO3,-30.9
20,OCCNc1nc2ccccc2[nH]1,12.8
21,O=C(O)CNC(=O)C1COc2ccccc2O1 (stereo not drawn),21.7
22,CCOc1ncccc1C(=O)N(C)CC(=O)Nc1ccccc1SC,33
23,CCOCc1c(C(=O)OCC(=O)Nc2ccc(C)c(S(=O)(=O)N(C)C)c2)oc2ccccc12,-5.71

row,Structure (SMILES),"hERG current change (%, negative = inhibition) at 10uM [%]"
1,Cc1[nH]n(-c2ccccc2)c(=O)c1C(c1ccc(O)c([N+](=O)[O-])c1)c1c(C)[nH]n(-c2ccccc2)c1=O,9.91
2,O=C(COC(=O)c1ccc(F)cc1F)NCCNC(=O)COC(=O)c1ccc(F)cc1F,16.8
3,ClCc1csc(N/N=C/c2cccs2)n1,11.8
4,O=[N+]([O-])c1ccc(C[n+]2ccccc2)cc1.[Br-],-6.43
5,CCN(c1ccccc1)S(=O)(=O)c1nnc(NC(=O)C(C)C)s1,20.3
6,O=C(O)c1cccc(NC(=O)c2ccccc2NC(=O)c2cccc([N+](=O)[O-])c2)c1,19.2
7,COc1ccc(NCc2ccc(OC)c(Cn3ccnc3)c2)c(OC)c1,-10.9
8,Nc1cc[n+](CC(=O)c2ccc3c(c2)OCCO3)cc1.[Br-],-0.154
9,COc1cc2c(cc1NC(=O)COC(=O)C(CCSC)NC(=O)c1ccccc1Cl)oc1ccccc12 (stereo not drawn),-2.5
10,Cc1ccn2cc(-c3ccc(NS(=O)(=O)c4ccccc4)cc3)nc2c1,-6.66
11,CC1Cc2ccccc2N1C(=O)COC(=O)c1ccc(O)cc1 (stereo not drawn),15.3
12,CCn1c(-c2cc3ccccc3cc2O)n[nH]c1=S,12.5
13,O=C(COc1ccccc1F)Nc1ccc(S(=O)(=O)N2CCCC2)cc1,2.77
14,Cc1cccc(S(=O)Cc2ccc(C(=O)N3CCOCC3)o2)c1 (stereo not drawn),19
15,CC(C)Cc1ccc(S(=O)(=O)N2CCCC2)cc1,-23
16,Cc1cccc(C(=O)NNS(=O)(=O)c2ccc(F)cc2)c1,8.24
17,Cc1cccc(NC(=S)NCCc2c[nH]c3ccccc23)c1,-4.25
18,COc1ccccc1NC(=O)Nc1ccccc1N1CCOCC1,-9.01
19,CC(Oc1ccc(Br)cc1)C(=O)NCc1ccccn1 (stereo not drawn),12.6
20,COc1cccc(/C=N/Nc2c(Cl)cncc2Cl)c1O,7.09
21,Cc1cc(-c2ccccc2)nc2[n+]1CCN2C.[Br-],1.36
22,O=C1Nc2ccccc2C1Cc1ccc(OC(F)(F)F)cc1 (stereo not drawn),15.7
23,C=CCn1c(CCC(O)COCCCCC)n[nH]c1=S (stereo not drawn),5.32

row,Structure (SMILES),"hERG current change (%, negative = inhibition) at 10uM [%]"
1,FC(F)(Cl)c1nnc2ccc(Sc3ccccn3)nn12,11.1
2,COc1ccc2c(c1)CC1c3c(cc4c(c3-2)OCO4)CC[N+]1(C)[O-] (stereo not drawn),-19.2
3,CC1(C)C2CCC1(C)C(OCCNCCOC(=O)Nc1ccccc1)C2 (stereo not drawn),-27.5
4,CSCCC(NC(=O)c1ccco1)C(=O)N1CCCCCCC1 (stereo not drawn),-4.39
5,COc1ccc(NC(=O)NNC(=O)c2cc3occc3n2C)c(OC)c1,3.05
6,Cc1cc(/C=C(\C#N)C(=O)NCCc2c[nH]c3ccccc23)c(C)n1C,3.85
7,COc1ccc(N(CC(=O)NC2CCCCCCC2)S(=O)(=O)c2c(C)nn(C)c2C)cc1,-19.8
8,Cc1ccsc1C(=O)OCC(=O)c1cc2ccccc2o1,2.77
9,O=C(NCC1CCCO1)c1c(O)c2cccc3c2n(c1=O)CC3 (stereo not drawn),10.4
10,COC(=O)C1C(=O)CC(C)(O)C(C(=O)OC)C1/C=C/c1ccccc1 (stereo not drawn),-15.6
11,O=C1/C(=C/c2cccs2)COc2ccccc21,-3.96
12,CCCN1CCN(C(=O)c2ccc(Sc3ccc(C)cc3)c(NC(C)=O)c2)CC1,-50.6
13,Nc1c(NCCN2CCCCC2)c2ccccc2oc1=O,-1.41
14,CC(=O)Nc1ccc(NC(=O)/C=C/c2ccc3c(c2)OCO3)cc1,13
15,CCCCN(C)C(=O)CCC(=O)Nc1ccc2nc(N3CCOCC3)cc(C)c2c1,-19.2
16,COC(=O)c1ccc(-n2c(C)cc(/C=N/Nc3nc(C)cc(=O)[nH]3)c2C)cc1,4.79
17,CC(=Nc1ccc2c(c1)nc(CO)n2C)C1=C(O)CC(C)(C)CC1=O,2.09
18,CN1CCN(CC(O)COC(c2ccccc2)c2ccccc2)CC1 (stereo not drawn),11.2
19,O=C(CNc1ccc2ccccc2c1)N/N=C/c1ccc(C(=O)O)cc1,-0.523
20,CC12CN3CC(C)(CN(C1)C3c1ccccc1F)C2 (stereo not drawn),3.57
21,CCOC(=O)/C(C#N)=C/c1cn(CCC(=O)O)nc1-c1cccc(Br)c1,-2.28
